The whole screen tested about 360,000 compounds, of which about 7,500 (2.1%) were called active. This list was built around the results that the source calls inconclusive (neither active nor inactive); the mix of calls is not that of the screen. Calls come from the whole dose curve; as a rule, active = well fitted cell-killing curve with a large enough effect; inconclusive = small, poorly fitted or top-dose-only effect, or effect the other way, or another doubt; inactive = no such curve, though single readings can be large or run the other way. No potency is given beside an inconclusive call; the fits are too rough.
Test: qHTS for induction of synthetic lethality in tumor cells producing 2HG: qHTS for the HT-1080-IDH1KD cell line
Conditions: HT-1080 IDH1 knockdown viability, ATP luminescence, 48 h; series mostly up to 46.1 µM
Method in brief: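 In this qHTS, HT-1080 cells depleted of IDH1 are exposed for 48 h at 37 °C to compound titrations. Toxicity is scored from CellTiter-Glo luminescence, with DMSO as full viability and medium alone as none.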
Potency is the fitted concentration of half-maximal effect; tags give direction and shape of the fitted curve.

Row | SMILES | Potency
1 | Cc1nc2ccccc2nc1SCC(=O)c1ccccc1 | inactive
2 | CN(C)S(=O)(=O)n1cc(/C=C(\NC(=O)c2ccccc2Cl)C(=O)N2CCCC2)c2ccccc21 | inactive
3 | CN(CCc1ccccc1)C1CCCN(S(=O)(=O)CC(F)(F)F)C1 (stereo not given) | inactive
4 | Cc1ccc(OC(C)C(=O)N2CC(=O)Nc3ccccc32)cc1 (stereo not given) | inactive
5 | COc1ccc(CNc2ncnc3c2[nH]c2ccccc23)cc1 | active: 20.6 µM
6 | Cc1ccc(/C(O)=C/C(=O)C(=O)NNC(=O)C(O)(c2ccccc2)c2ccccc2)cc1 | inconclusive [cytotoxic, single point]
7 | CCOC(=O)C1(CCOc2ccccc2)CCN(Cc2ccc(O)c(OCC)c2)CC1 | inconclusive [cytotoxic, single point]
8 | COc1ccc(C2(C)NC(=O)N(CC(=O)c3cc(C)n(C4CC4)c3C)C2=O)cc1 (stereo not given) | inactive
9 | O=C(c1cc([N+](=O)[O-])ccc1N1CCCCC1)N1CCCCC1 | inconclusive [cytotoxic, single point]
10 | O=C(/C=C/c1ccco1)NC(=S)Nc1ccccc1N1CCOCC1 | inactive
11 | COc1cccc(-c2ccc(NC(=O)C3CCCN(Cc4cc(C)[nH]n4)C3)cc2)c1 (stereo not given) | inconclusive [cytotoxic, single point]
12 | CC(=O)N=c1c(C#N)cc2c(=O)n3cccc(C)c3nc2n1Cc1ccco1 | inactive
13 | COc1cccc2c(SCC(=O)N/N=C/c3ccc(O)c(O)c3)cc(C)nc12 | inconclusive [cytotoxic, single point]
14 | CC(C)(C)NC(=O)COc1ccc(CNc2ncn[nH]2)cc1 | inconclusive [rising, partial curve, poor fit]
15 | Fc1ccc(Oc2nc(-c3ccccn3)nc3ccccc23)cc1 | inconclusive [cytotoxic, single point]
16 | COc1cc(CN2CCC(C(=O)NCC(C)(C)CN(C)C)CC2)ccc1OCc1ccccc1 | inactive
17 | Cc1nc(-c2cccc(NS(=O)(=O)c3cccc4ccccc34)c2)cs1 | inconclusive [cytotoxic, partial curve, poor fit]
18 | COc1cc2ncc(S(=O)(=O)c3ccccc3)c(N3CCCC(C)C3)c2cc1OC (stereo not given) | inconclusive [cytotoxic, single point]
19 | O=C(NC(=S)N1CCN(c2c(Cl)cccc2[N+](=O)[O-])CC1)c1cccs1 | inconclusive [cytotoxic, single point]
20 | CCN(CC(=O)Nc1ccccc1C(F)(F)F)C(=O)c1ccc(N2CCCC2=O)cc1 | inactive

From PubChem BioAssay AID686971 (National Center for Advancing Translational Sciences (NCATS), 2013)
